Structures are written as SMILES. In all, about 110,000 compounds were measured (“z-score”: median about -0.1, highest 2% from about 2 on). The list shows a part of the results. Active and inactive are the calls of the source.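 The calls were made as follows: active = z-score in the third read window above 3 or below -3; inactive = the rest.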

In this assay the target is Metabotropic glutamate receptor 8 (Rattus norvegicus) (UniProt P70579). The assay can be described thus: rat mGluR8 modulators via GIRK flux, primary screen, cell-based, thallium flux, HTS (AID 488969). As to conditions: HEK293 rat mGluR8, GIRK (G protein-gated inwardly rectifying potassium channel) thallium flux, FluoZin2; at 10 µM; stronger effect = higher value; submaximal glutamate (EC20) added with thallium.
Sequence of UniProt P70579 (P70579 whole entry, looked up): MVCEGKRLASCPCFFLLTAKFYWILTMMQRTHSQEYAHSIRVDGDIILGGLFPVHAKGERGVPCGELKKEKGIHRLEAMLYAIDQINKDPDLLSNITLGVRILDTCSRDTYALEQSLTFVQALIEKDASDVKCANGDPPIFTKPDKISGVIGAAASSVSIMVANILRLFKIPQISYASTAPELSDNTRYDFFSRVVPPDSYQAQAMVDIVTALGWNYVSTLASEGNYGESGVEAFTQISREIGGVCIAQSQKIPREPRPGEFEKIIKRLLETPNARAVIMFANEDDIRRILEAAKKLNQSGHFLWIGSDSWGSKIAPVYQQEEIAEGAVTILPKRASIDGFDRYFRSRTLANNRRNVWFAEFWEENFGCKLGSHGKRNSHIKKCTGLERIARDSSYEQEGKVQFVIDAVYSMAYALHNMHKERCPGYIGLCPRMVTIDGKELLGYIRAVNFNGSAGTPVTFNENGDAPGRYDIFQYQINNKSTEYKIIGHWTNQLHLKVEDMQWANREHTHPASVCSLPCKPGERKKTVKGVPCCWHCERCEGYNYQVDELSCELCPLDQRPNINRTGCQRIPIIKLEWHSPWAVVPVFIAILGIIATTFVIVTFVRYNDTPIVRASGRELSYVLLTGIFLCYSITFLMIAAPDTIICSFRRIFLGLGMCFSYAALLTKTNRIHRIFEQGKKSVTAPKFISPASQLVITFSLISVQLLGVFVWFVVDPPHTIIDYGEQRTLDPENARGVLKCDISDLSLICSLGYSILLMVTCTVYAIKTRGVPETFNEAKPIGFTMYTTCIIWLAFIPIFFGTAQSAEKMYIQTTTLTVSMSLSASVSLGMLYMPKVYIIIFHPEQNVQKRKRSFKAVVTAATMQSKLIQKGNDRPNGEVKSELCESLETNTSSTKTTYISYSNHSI
`CN(C)c1ccc(/C=[N+](\[O-])C(C)(C)/C=N/O)cc1` displayed a z-score of 0.552.

`CC(O)CN(Cc1ccc(Cl)cc1)CC(C)O` (configuration not stated) gave a z-score of 0.226.

Compound `O=C(Nc1cccnc1)C1COc2ccccc2O1` (configuration not stated) displayed a z-score of 0.162.

The compound `Cc1ccc(CSCCNC(=O)c2ccc(Cl)c(S(=O)(=O)N3CCOCC3)c2)cc1` gave a z-score of -0.283.

`Cc1ccc(C2=NN(S(C)(=O)=O)C(c3cccs3)C2)cc1` (configuration not stated) yielded a z-score of -0.0177.

`CC(OC(=O)c1cc2sccc2n1C)C(=O)NCc1cccs1` (configuration not stated) displayed a z-score of -0.0535.

`CCOC(=O)Cc1cc(-c2ccc(OC)cc2)nc2ccc3ccccc3c12` gave a z-score of -0.157.

`Cc1cc(C)n(C(=O)c2ccc(S(=O)(=O)N3CCOCC3)cc2)n1` gave a z-score of 0.602.

As to `COC(=O)c1ccc(C2C(Oc3ccccc3C)C(=O)N2CCc2ccc(OC)c(OC)c2)cc1` (configuration not stated), the z-score turned out to be 0.272.

Compound `CCN1CCCC1CNC(=O)c1ccc(N2CCCC2=O)cc1` (configuration not stated) registered a z-score of 1.38.

`CCc1nc2cc(C)nn2c2nc3ccccc3n12` registered a z-score of 0.527.

On to `Cc1ccc(S(=O)(=O)NNC(=S)NC(=O)c2ccc([N+](=O)[O-])cc2)cc1`, for which the z-score is -0.275.

`Cc1sccc1/C=N/NC(=O)c1cccc2ccccc12` had a z-score of -0.0412.

With `CCOc1ccc(OCC)c(S(=O)(=O)N2CCC(C)CC2)c1`, the z-score is -0.181.

For `C/C(=N\NS(=O)(=O)c1ccc(Cl)cc1)c1ccc(O)cc1`, the z-score was -0.123.

Regarding `Cc1ccc(N2C(=O)c3ccccc3C2Nc2cccnc2)nc1` (configuration not stated), the z-score stood at 0.46.

Compound `CCCS(=O)(=O)N1CCCC(C(=O)NCCCN2CCCC2=O)C1` (configuration not stated) yielded a z-score of 0.225.

`Cc1ccccc1NC(=O)CSc1nc(Nc2ccccc2)nc(N2CCOCC2)n1`: the z-score was -0.674.

In turn, `C=CCn1c(COc2cccc(C)c2C)nnc1SCC(=O)N1CCN(c2ccccc2)CC1` displayed a z-score of -0.133.

Compound `O=C(O)CS(=O)(=O)CC(=O)O` gave a z-score of -0.0936.

Compound `O=C(O)CCc1nn2c3ccccc3nc2n(CCN2CCCCC2)c1=O` showed a z-score of 0.263.

For the compound `Cc1cc2nc(C)n3c4ccccc4nc3n2n1`, the z-score is 0.628.

Compound `CC(C)Cn1c(CN(C)Cc2ccccc2)nc2c1c(=O)n(C)c(=O)n2C` gave a z-score of -0.14.

For the compound `O=C(CSc1nc(-c2ccccc2Cl)ns1)c1ccc(Cl)cc1`, the z-score was -0.0923.

Compound `Cc1cc(C)cc(NC(N)=S)c1` yielded a z-score of -0.143.

On to `O=C(NCCc1ccccc1)C1CCN(S(=O)(=O)c2ccccc2)CC1`, for which the z-score was -0.251.

Compound `Fc1ccc(-c2cc(C(F)(F)F)nc(-n3cncn3)n2)cc1` had a z-score of -1.14.

On to `O=C(NC1CCSC1=O)c1ccc(Oc2ccc(F)cc2)nc1` (configuration not stated), for which the z-score is -0.0858.

With `COc1ccc(Cl)cc1S(=O)(=O)N1CCN=C1C`, the z-score is -0.0286.

For the compound `CC(C)c1nc2n[nH]c(N)c2c2c1CSC(C)(C)C2`, the z-score is -0.296.

`Nc1nc(-c2cccnc2)nn1C(=O)c1ccco1` yielded a z-score of 0.31.

`C=CCOc1ccc(CNc2nccs2)cc1OC` had a z-score of -0.371.

As to `CSc1nnc(C)c(=O)[nH]1`, the z-score was -0.102.

In turn, `CCCCOc1ccc(NC(=O)CN2CCN(C(=O)OCC)CC2)cc1` registered a z-score of 0.226.

As for `CC(Cc1cccs1)NC(=O)Nc1ccc(F)cc1` (configuration not stated), the z-score is -0.297.

The compound `CCCC(O)(c1ccc(Cl)cc1)C(CN1CCOCC1)c1ccccc1` (configuration not stated) had a z-score of 0.163.

Compound `O=C(NCC1CCCO1)c1onc(CSc2cccc(Cl)c2)c1C(=O)O` (configuration not stated) yielded a z-score of -0.115.

Take `Cc1ccccc1NC(=O)CN1CCC(NC(=O)Nc2ccccc2)CC1`: the z-score is -0.237.

Turning to `Cc1cccc(NC(=O)C(=O)NCCCc2ccccc2)c1`, the z-score is -0.319.

Compound `CCOC(=O)C1CCN(Cc2ccccc2C)CC1` displayed a z-score of 0.126.

For `O=c1/c(=C/c2cn(-c3ccccc3)nc2-c2ccc(F)cc2)sc2nc3ccccc3n12`, the z-score is -0.0226.

In turn, `COc1cc(C)ccc1OCCCCOc1ccccc1C(C)=O` displayed a z-score of -0.565.

Consider `COc1ccc(C2c3ccc4ccccc4c3Oc3ncn(CCN4CCOCC4)c(=N)c32)cc1` (configuration not stated), for which the z-score is active: 4.1.

`CCc1ccccc1NC(=O)/C(=C/c1ccco1)c1ccccc1` yielded a z-score of -1.41.

Compound `COc1ccc(-c2nnc(SCC(=O)/C(C#N)=C(\C)N)o2)cc1` returned a z-score of 0.47.

As for `COc1ccc(/C(N)=N/OC(=O)CSc2ccc(C)cc2)cc1`, the z-score turned out to be 0.344.

The compound `Cn1nc(C(=O)Nc2cccc(C(F)(F)F)c2)ccc1=O` gave a z-score of -0.12.

In the case of `OCCN(CCO)c1ccc(C(c2ccc(Cl)cc2)c2ccc(N(CCO)CCO)cc2Cl)c(Cl)c1`, the z-score was 0.134.

`CC(C)CC(C(=O)Nc1oc(-c2ccccc2)c(-c2ccccc2)c1C#N)N1C(=O)c2ccccc2C1=O` (configuration not stated): the z-score was -0.151.

The compound `COc1ccccc1-c1c(C#N)c(N)nc2c1CCc1ccccc1-2` yielded a z-score of -0.139.

Take `COc1ccc(CC(=O)O/N=C(\N)Cc2cccc3ccccc23)cc1`: the z-score was -0.194.

Turning to `Cn1cc(S(=O)(=O)CC(=O)N2CCc3ccccc32)c2ccccc21`, the z-score was -0.166.

Regarding `Cc1cc2nc3c(c(=O)n2[nH]1)CCCC3`, the z-score was -0.219.

In turn, `O=c1c2sccc2nc(SCc2cc(=O)n3ccccc3n2)n1-c1ccc(Br)cc1` returned a z-score of -0.744.

On to `O=C(NCc1ccccn1)Nc1ccc2c(c1)OCO2`, for which the z-score was 0.29.

As to `Cc1cc(C)nc(/N=C2\NC(=O)CC(C(=O)O)N2c2ccc(Cl)cc2)n1` (configuration not stated), the z-score is -0.705.

`Cc1cccnc1NC(=S)NC(=O)c1cccs1` displayed a z-score of 0.0645.

In turn, `COc1ccc(NC(=O)c2c(C)cc(=O)oc2C)c(OC)c1` had a z-score of -0.316.

`CCn1c(N2CCN(C(=O)Nc3ccc(F)cc3)CC2)nc2ccccc21` yielded a z-score of -1.03.

As for `Cn1c(C(C#N)/C(=N\S(=O)(=O)c2cccs2)c2ccccc2)nc2ccccc21` (configuration not stated), the z-score is 0.134.

Compound `O=C(CCN1CCCCC1c1cccnc1)NCc1ccccc1` (configuration not stated) registered a z-score of -0.0612.

Turning to `COc1ccc(N2C(=O)CCC(C(=O)N3CCOCC3)C2c2ccc(F)cc2)cc1` (configuration not stated), the z-score is -0.266.

For `Cc1cc(C)cc(N2CCCn3c2nc2c3c(=O)n(CCN3CCOCC3)c(=O)n2C)c1`, the z-score was -0.855.

For the compound `CCS(=O)(=O)N1CCC(C(=O)NCc2ccco2)CC1`, the z-score amounted to 0.0456.

In turn, `c1ccc(-c2ccc(-c3cn4c(n3)CCC4)cc2)cc1` displayed a z-score of -0.138.

`CCOc1ccccc1/C=C(/NC(=O)c1ccccc1)C(=O)NCC(=O)O` displayed a z-score of 0.703.

As to `O=C(O)CCC(=O)N1N=C(c2ccccc2)CC1c1ccc2nccnc2c1` (configuration not stated), the z-score is 0.396.

As to `O=[N+]([O-])c1cnccc1Nc1ccc(F)cc1`, the z-score was 0.0228.

As for `CCC1(COC(=O)Nc2cccc(Cl)c2)COC1`, the z-score was -0.502.

With `Cc1c(-c2nc(N)nc(Nc3ccc(F)cc3)n2)oc2ccccc12`, the z-score was 0.117.

`Cn1c(Cc2csc(N)n2)nnc1SC/C=C/c1ccccc1` registered a z-score of -0.411.

As for `Cn1cccc1/C=N/NC(=O)c1sc2ccccc2c1Cl`, the z-score amounted to 1.01.

For `Cc1c(N(C)C(=O)C2CCCN2S(=O)(=O)c2ccccc2)c(=O)n(-c2ccccc2)n1C` (configuration not stated), the z-score was -0.0643.

Compound `CCN1CCCC1CNC(=O)Cn1ncc2c(=O)oc3ccc(C)cc3c21` (configuration not stated) displayed a z-score of 0.276.

`O=C(c1ccc2c(c1)OCO2)N1CCN(c2ccc(C(F)(F)F)cn2)CC1` had a z-score of 0.271.

Take `Cc1ccc2c(c1)NC(=O)C(CC(=O)NCc1cccnc1)O2` (configuration not stated): the z-score was -0.984.

In turn, `O=C(COC(=O)c1cccnc1Cl)c1ccc(Cl)cc1Cl` showed a z-score of -0.255.

`C=CCC(c1ccccc1F)N(CCN1CCOCC1)C(=O)Nc1cccc(Cl)c1` (configuration not stated) had a z-score of 0.497.

Consider `CCCN1CCCc2cc(CN)ccc21`, for which the z-score is -0.537.

Take `O=C(Nc1ccc(N2CCCC2)c(Cl)c1)c1ccc([N+](=O)[O-])cc1`: the z-score was 0.316.

Regarding `CCc1ccc(C2=NN(c3ccc(S(N)(=O)=O)cc3)C(c3ccc(F)cc3)C2)cc1` (configuration not stated), the z-score was -0.695.

In turn, `CC(=O)c1c(C)oc(C)c1CSCc1ccc(C(=O)O)o1` displayed a z-score of 0.674.

As for `Cc1ccc(/C(O)=C2/C(=O)C(=O)N(Cc3cccnc3)C2c2ccccn2)cc1` (configuration not stated), the z-score was -0.308.

`Cc1cc(NC(=O)CSc2nnc(-c3ccncc3)n2N)ccc1Br` registered a z-score of 0.324.

The compound `COc1ccc(OC)c(-n2c(SCC(=O)NCc3ccco3)nnc2-c2c[nH]c3ccccc23)c1` had a z-score of -1.04.

The compound `CCOc1cc(CNCc2cccs2)ccc1OCC(=O)NC(C)(C)C` came in with a z-score of -0.0695.

`N#Cc1cc2c(nc1SCC(O)CS(=O)(=O)Cc1ccccc1)CCCC2` (configuration not stated) showed a z-score of -1.27.

In turn, `Cc1cccc(-n2c(C)n[nH]c2=S)c1` gave a z-score of -0.139.

Regarding `COc1ccc(-c2cc3ccccc3oc2=O)cc1NC(=S)NC(=O)c1ccc2c(c1)OCCO2`, the z-score is 0.101.

Turning to `CCc1c(C)c2ccc(O)c(CN(C)C)c2oc1=O`, the z-score was -0.539.

The compound `CC(C)CN(CCC(=O)O)CC(C)C` returned a z-score of -0.103.

In the case of `COc1cc(C2=NOC(C(=O)N3CCN(c4ccc(F)cc4)CC3)C2)cc(OC)c1OC` (configuration not stated), the z-score was -0.19.

As for `COc1ccc(CCN(C)Cc2ccc(OC)c(OCc3ccccc3)c2)cc1OC`, the z-score turned out to be 0.311.

Compound `C/C(=N\NC(=O)c1ccccc1O)C1C(=O)c2ccccc2C1=O` registered a z-score of -0.839.

Turning to `COc1ccc(C(=O)NNC(=O)CN2CCC(n3nnc4cc(F)ccc43)CC2)cc1`, the z-score is -0.223.

Regarding `Cc1ccc(NC(=O)CNc2ccc(Cl)cc2F)cc1`, the z-score was -0.328.

`CC(=O)Nc1ccc(S(=O)(=O)Nc2nc3ccccc3s2)cc1` came in with a z-score of 0.125.

On to `COCc1cc(C)nc(OCC(=O)N/N=C/c2cccc(OC)c2)c1C#N`, for which the z-score is -0.16.

On to `CC(=O)N1CCN(S(=O)(=O)c2cccc(C(=O)Nc3ccc4c(c3)CCC4)c2)CC1`, for which the z-score is -0.275.

With `COc1ccc2nc(NC(=O)C(NS(=O)(=O)c3cccs3)C(C)C)sc2c1` (configuration not stated), the z-score was found to be 0.0812.

Consider `Cc1ccc(C)c(NS(=O)(=O)c2c(C)ccc3nsnc23)c1`, for which the z-score was -0.891.

`O=C(Nc1ccccc1Cl)C1CCN(Cc2cnn(-c3ccccc3)c2-n2cccc2)CC1` yielded a z-score of 0.64.

`O=C(/C=C\c1ccccc1OC(=O)c1ccccc1F)c1cc2ccccc2o1` came in with a z-score of -0.221.

`Cc1cc(-c2ccccc2)nc(SCC(=O)c2cccc([N+](=O)[O-])c2)n1` showed a z-score of -0.102.

`COC(=O)COc1cc(Br)c(/C=C2/SC(=O)N(CC(=O)N3CCCC3)C2=O)cc1OC` came in with a z-score of 0.0962.

In the case of `COc1ccc(C)cc1NS(=O)(=O)c1ccc(NC(=O)CN(c2cc([N+](=O)[O-])ccc2C)S(C)(=O)=O)cc1`, the z-score was 0.504.

With `N#Cc1nc(COc2ccccc2Cl)oc1NCc1cccnc1`, the z-score was 0.291.

Compound `COCC(=O)N(Cc1ccccc1)c1ccccn1` returned a z-score of 1.37.

The compound `S=c1[nH]nc(-c2ccccc2)n1CC1CCCO1` (configuration not stated) displayed a z-score of 0.274.

Take `CCN(C(=O)C1CCN(S(=O)(=O)c2cccc3nonc23)CC1)c1ccccc1`: the z-score is -0.39.

On to `COc1ccccc1-n1c(C)nnc1SCC(=O)Nc1cccc(C(C)=O)c1`, for which the z-score was -0.146.

The compound `Cn1c(=O)oc2cc(S(=O)(=O)N3CCN(Cc4ccc5c(c4)OCO5)CC3)ccc21` gave a z-score of 0.012.

The values above are taken from PubChem BioAssay AID488969 (Vanderbilt High Throughput Screening Facility, 2010).
